According to the supplement of paper PMC3334620:
The full ranking holds about 33,000 sequences; the median of “E-score (-0.5 to 0.5)” is about -0.035, and the highest 2% start at about 0.34. This is one part of the list.

target: T1, Mot3 (UniProt P54785); assay: PBM E-score (8-mer binding enrichment) (E-score (-0.5 to 0.5)); higher = stronger / more preferred TF binding; most listed sequences are background and not binding sites; settings: protein concentration: 200 nM; construct: GST-full length
T1 sequence: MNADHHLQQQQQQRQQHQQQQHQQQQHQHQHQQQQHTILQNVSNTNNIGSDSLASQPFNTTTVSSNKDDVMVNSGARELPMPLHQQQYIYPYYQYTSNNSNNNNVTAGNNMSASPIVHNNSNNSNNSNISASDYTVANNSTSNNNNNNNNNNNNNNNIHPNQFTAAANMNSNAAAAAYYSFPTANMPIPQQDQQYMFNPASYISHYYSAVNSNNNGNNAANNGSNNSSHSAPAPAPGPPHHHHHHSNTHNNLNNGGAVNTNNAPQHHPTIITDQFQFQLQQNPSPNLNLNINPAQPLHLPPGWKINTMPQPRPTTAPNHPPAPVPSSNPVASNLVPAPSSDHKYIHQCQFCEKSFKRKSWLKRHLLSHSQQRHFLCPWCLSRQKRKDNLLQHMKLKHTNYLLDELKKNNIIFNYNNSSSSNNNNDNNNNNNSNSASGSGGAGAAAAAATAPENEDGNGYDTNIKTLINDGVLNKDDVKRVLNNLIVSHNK
Experimental: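 Universal 'all 10-mer' protein binding microarrays (Agilent AMADID 015681) probed with GST-tagged S. cerevisiae TFs (full-length or DBD) made by in vitro transcription/translation (PURExpress), about 100-200 nM. Bound TF was detected with fluorescent anti-GST. Each ungapped 8-mer (which stands for itself and its reverse complement) is scored by the PBM enrichment score (E-score), a modified Wilcoxon-Mann-Whitney statistic from -0.5 to +0.5, computed with the Universal PBM Analysis Suite. Scale: above 0.35 generally sequence-specific binding.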

Row | Sequence | PBM E-score
1 | AAAATGTG | 0.0732
2 | CCGTGATA | -0.153
3 | ATATAGAT | 0.0278
4 | AACCCACG | -0.112
5 | GTCGTGTA | 0.376
6 | ATCGGCAT | -0.0895
7 | CACTCTTC | -0.209
8 | CCATAGCC | -0.296
9 | CAGCCCCG | -0.0445
10 | CCGGCCGA | -0.333
11 | TAGCGTCA | -0.118
12 | CACGCAGG | 0.316
13 | CGACAGCC | -0.216
14 | AAGACATC | -0.0992
15 | GTTAATGA | 0.124
16 | AAGCTAGA | -0.186
17 | GGAAGATA | -0.0613
18 | CGCACCTC | -0.0771
19 | AAACCAGG | -0.076
20 | ACCCTCAC | -0.277
21 | GATTTCCA | -0.131
22 | ATAGCTGA | -0.182
23 | CATGTTAC | 0.332
24 | GTAGCAAA | 0.0238
25 | CAGTTGCA | -0.063

Row | Sequence | PBM E-score
26 | CTCATAAG | -0.0998
27 | TCTGCGCA | 0.00968
28 | AGAGGTAC | -0.0723
29 | CGAAATAG | 0.0515
30 | CTCGAAGC | -0.037
31 | AAGTAGAA | 0.0505
32 | ACAAGACC | 0.094
33 | ACCAGGAG | -0.061
34 | GCCGCGAA | -0.332
35 | CTAATAGA | 0.0893
36 | ATATAGTA | 0.169
37 | CATCCCCC | -0.304
38 | CGTCCGAC | 0.0527
39 | GACGAAGC | -0.0978
40 | GGAACGAC | 0.134
41 | ACTTGAGC | -0.218
42 | GATTTTAC | 0.167
43 | ACATGAGT | 0.279
44 | GTCGTGGA | -0.26
45 | CCTATATC | 0.0144
46 | AATTCCTC | -0.0457
47 | AATAGACT | -0.0514
48 | ACTCTCCC | -0.284
49 | ACCAAGGA | 0.184
50 | ATCGGGGC | -0.171

Row | Sequence | PBM E-score
51 | CCGTGTAC | 0.34
52 | CAGTACTA | -0.0199
53 | ATAACCCC | -0.207
54 | CTTCCATC | -0.16
55 | CGACCAGA | -0.12
56 | GATCTTGC | 0.007
57 | ATCAGTTG | 0.00124
58 | AAGCGCGA | -0.206
59 | GACATAGC | 0.111
60 | ATCGCACG | -0.0828
61 | TCGGCAAA | -0.134
62 | GAGCGATC | -0.313
63 | ACCACTTG | -0.0392
64 | CAAGGATA | -0.0115
65 | CACGGTAG | -0.0486
66 | CCCCTACG | -0.21
67 | CCAGCTTC | -0.187
68 | CGCACTAC | -0.134
69 | CCCAAAAC | 0.0863
70 | AGCCCCTC | -0.202
71 | CACTAGTG | -0.12
72 | CATTATGA | -0.16
73 | GTCGTTAA | 0.078
74 | AGACGGGG | -0.321
75 | GGCGAAGA | -0.144

Row | Sequence | PBM E-score
76 | CTGAATAA | 0.0747
77 | TAATTATA | 0.206
78 | ACTATTGA | -0.0506
79 | GAGTATGA | -0.008
80 | AGTGGATA | -0.17
81 | TCCGATAA | -0.172
82 | ATCGCTTA | -0.159
83 | GACGGATA | -0.11
84 | AGATTCGG | 0.0498
85 | AGCACATC | -0.0674
86 | TGCACTAA | 0.0486
87 | CGGGGGAG | -0.248
88 | ACGTCTTG | 0.0197
89 | CTATGGAC | -0.12
90 | TATCCACA | 0.0608
91 | ATTGCTGG | -0.17
92 | AGTTTCCA | -0.214
93 | ACAATCCT | 0.0286
94 | CACATATG | 0.0157
95 | ATGTGTCA | 0.153
96 | AACCCTGC | -0.198
97 | GATTTATA | 0.12
98 | CTGGCTAC | -0.161
99 | CGGGCTGC | -0.142
100 | GTACCTAA | 0.374

Row | Sequence | PBM E-score
101 | ACCCGCCC | -0.0478
102 | AACTCTGG | -0.105
103 | AATAATCC | 0.134
104 | CGTAGCTA | -0.0484
105 | CATTCTAC | 0.173
106 | AGCATCGC | -0.31
107 | AGCGTATG | -0.0586
108 | GACTCCTA | -0.00028
109 | CCCGGGTA | 0.011
110 | AAACGTTG | 0.0415
111 | AACGACTT | -0.255
112 | CTTAGAAG | -0.209
113 | CAATACTA | -0.0095
114 | CAGTCATG | -0.139
115 | AGAGGCTA | -0.231
116 | GTAGGCAA | 0.49
117 | GTTCCTCA | -0.026
118 | AGCAATAG | -0.0253
119 | AACATACA | 0.321
120 | ACCGTGCG | 0.0264
121 | CGGCTTAA | -0.0557
122 | GATCTACC | -0.168
123 | CCCCACAG | 0.0973
124 | ACGTCGTG | 0.114
125 | CACGCTCA | 0.0572

Row | Sequence | PBM E-score
126 | AGGAGACT | -0.202
127 | AACGTTGG | 0.122
128 | CACCAAGA | -0.0614
129 | ATTGGTCC | 0.00839
130 | ATGGCGGA | -0.302
131 | GCGGATAC | 0.0777
132 | ATGTGCGA | -0.0836
133 | CGTGCGCC | 0.042
134 | ATTTTTTG | 0.0963
135 | GCCCAAAA | 0.0762
136 | CCGAACGG | -0.309
137 | CTCCACAA | 0.0493
138 | GGGTAGGA | 0.065
139 | CTAAAGGA | 0.148
140 | AACCCTCC | -0.107
141 | ATAAGTCG | -0.183
142 | AGTGGCAA | -0.144
143 | ATGGACTG | -0.136
144 | CTGAAAGC | 0.0365
145 | AATTTCTC | -0.0417
146 | TCCACCAA | -0.203
147 | AGTTGAAT | 0.0466
148 | AAAGAGCT | -0.0166
149 | CAGCTCGC | -0.0969
150 | CGACAACC | -0.0603

Row | Sequence | PBM E-score
151 | AAGGGATA | -0.0261
152 | AACCAAGA | 0.00054
153 | GCAAGCGA | 0.0905
154 | GAGTACTA | 0.102
155 | GAAATTTC | 0.111
156 | AGGACCGC | -0.169
157 | GGGGGTAC | -0.0474
158 | AGCAAAGA | -0.192
159 | CGACTACA | 0.186
160 | AGCTATAG | -0.2
161 | GACCGATA | -0.172
162 | GAACTGCC | -0.194
163 | ATGGAGTC | -0.155
164 | CCCGATCG | -0.195
165 | ATCTGCGA | -0.104
166 | CTTGGATC | -0.0997
167 | ACGCAACT | 0.0644
168 | AGGGAAAG | -0.0829
169 | GAAGATAA | 0.28
170 | CAAGTCAG | -0.16
171 | AACTTAAG | 0.122
172 | CGGTGGAA | -0.158
